{"source": "PubChem BioAssay AID1346428", "about": "(National Center for Advancing Translational Sciences (NCATS), 2018)", "note": "“And” between values parts separate entries of the source, which are not always exact repeats. Equal values may be shown once. Hit rate of the full screen: of about 48,000 compounds, about 1,200 (2.5%) were called active. Another 2% or so got no clear call; they are omitted.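 How the source made its calls: active means activation of at least 60% and not above a set upper limit (about 1 call in 100 departs from these limits); inconclusive means activation of 40% to 60%, or above that upper limit; inactive means activation under 40%.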 Some of the results follow.", "data": [{"target": "Probable G-protein coupled receptor 32 (Homo sapiens) (UniProt O75388)", "sequence (O75388 whole entry, looked up)": "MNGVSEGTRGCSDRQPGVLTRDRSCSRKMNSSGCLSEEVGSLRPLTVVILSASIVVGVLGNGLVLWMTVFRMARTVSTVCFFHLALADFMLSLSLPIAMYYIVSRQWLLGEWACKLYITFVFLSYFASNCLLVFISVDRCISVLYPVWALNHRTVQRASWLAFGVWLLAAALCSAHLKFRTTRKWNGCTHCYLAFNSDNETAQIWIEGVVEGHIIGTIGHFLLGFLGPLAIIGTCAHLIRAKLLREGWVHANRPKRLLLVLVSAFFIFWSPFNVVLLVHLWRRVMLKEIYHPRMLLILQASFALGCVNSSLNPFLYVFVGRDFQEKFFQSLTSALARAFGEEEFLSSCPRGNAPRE", "test": "qHTS for Agonists of Human Resolvin D1 Receptor DRV1; further: 0% is about no effect", "settings": "CHO-K1 GPR32 beta-arrestin PathHunter luminescence, 90 min; at 76.9 µM; active compounds read high; zero percent set by DMSO-only wells", "summary_of_the_method": "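PathHunter beta-arrestin recruitment in CHO-K1 cells stably expressing ProLink-tagged GPR32. Cells were exposed to compound for 90 min at 37 C, then chemiluminescence was read after 1 h detection at ambient temperature; DMSO served as basal control.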", "values": [{"smiles": "Cc1ccc(-n2c(=O)c3c(c4cc(C)ccc4n3C)n(CC(=O)Nc3c(C)cccc3C)c2=O)cc1", "activation": "inactive: 13%"}, {"smiles": "CCOc1ccc(CCNC(=O)Cn2ncc3c([nH]c4ccccc43)c2=O)cc1OCC", "activation": "inactive: -3.92%"}, {"smiles": "O=C(N/N=C/c1ccc([N+](=O)[O-])o1)c1ccc(O)cc1", "activation": "inactive: -22.7%"}, {"smiles": "Cc1cncn1CCc1nc2c3ccccc3nc(SCC(=O)Nc3ccc(F)cc3)n2n1", "activation": "inactive: -10.5%"}, {"smiles": "CCc1cccc(NC(=O)C2CCC(CNS(=O)(=O)c3ccc4c(c3)CCCC(=O)N4)CC2)c1", "note": "(centres undefined)", "activation": "inactive: 4.49%"}, {"smiles": "CCN(C(=O)Cn1c(=O)nc(-c2ccccc2)c2cc(Cl)ccc21)c1cccc(C)c1", "activation": "inactive: -7.41%"}, {"smiles": "CCOc1ccccc1CNC(=O)c1cnc2sc(N3CCOCC3)nn2c1=O", "activation": "inactive: -8.95%"}, {"smiles": "Clc1ccccc1-c1nnc(-c2ccccc2CNc2ccc(Br)cc2)o1", "activation": "inactive: -4.01%"}, {"smiles": "CCOc1ccc(-n2c(SCC(=O)Nc3ccc4c(c3)OCCO4)nc3c([nH]c4ccccc43)c2=O)cc1", "activation": "inactive: -6.26%"}, {"smiles": "OCCN1CCN(C(c2ccc(Cl)cc2Cl)c2sc3nc(-c4ccco4)nn3c2O)CC1", "note": "(centres undefined)", "activation": "inactive: 20.4%"}, {"smiles": "CCc1nc2ccc(C(=O)NCc3ccc(SC)cc3)cc2nc1CC", "activation": "inactive: -20.7%"}, {"smiles": "C#CCSc1nc(-c2ccccc2)c2cc(Cl)ccc2n1", "activation": "inactive: -13.1%"}, {"smiles": "CCOc1ccccc1NC(=O)CCc1c(C)nc2c(c(C)nn2-c2ccccc2)c1C", "activation": "inactive: 15.3%"}, {"smiles": "COc1ccc(-c2cc(OC(=O)c3ccccc3)c3c(C)oc(C)c3c(=O)c2)cc1OC", "activation": "inactive: -18.4%"}, {"smiles": "COc1cccc(NC(CNS(=O)(=O)c2ccc(Cl)cc2)c2ccccc2)c1", "note": "(centres undefined)", "activation": "active: 77.4%"}, {"smiles": "CC(C)c1ccc2c(c1)NC(c1ccncc1)=NC(c1cccs1)=N2", "activation": "inactive: -8.21%"}, {"smiles": "CCc1cccc(NC(=O)C(NS(=O)(=O)c2ccc3nc(C)sc3c2)C(C)C)c1", "note": "(centres undefined)", "activation": "inactive: -4.28%"}, {"smiles": "O=C(CCS(=O)(=O)c1cc(Br)cc2c1N(C(=O)C1CC1)CC2)Nc1ccc(F)cc1", "activation": "inactive: 0.789%"}, {"smiles": "Cc1ccc(CNC(=O)c2sc3nc(-c4ccccc4)cn3c2C)cc1", "activation": "inactive: 25.5%"}, {"smiles": "Cc1ccc(Cl)cc1N1CCN(C(=O)c2ccc3c(c2)N(Cc2ccccc2F)C(=O)c2ccccc2S3=O)CC1", "note": "(centres undefined)", "activation": "inactive: 10.2%"}, {"smiles": "CCCN1C(=O)c2[nH]nc(-c3cccc(OC)c3)c2C1c1ccccn1", "note": "(centres undefined)", "activation": "inactive: -12.1%"}, {"smiles": "CC(C)Cn1c(=O)c2ccccc2n2c(CCC(=O)NCc3ccc(Cl)cc3)nnc12", "activation": "inactive: 6.95%"}, {"smiles": "O=C(NCc1ccc(F)cc1)c1ccc(Cn2c(SCc3ccc(F)cc3)nc3cccnc32)cc1", "activation": "inactive: 33.8%"}, {"smiles": "Cc1cc(C)cc(-n2c(C)nc3cc(C(=O)NCc4ccc(F)cc4)ccc32)c1", "activation": "inactive: 22.4%"}, {"smiles": "Cn1nnc2c(NCc3ccccc3)ncnc21", "activation": "inactive: -14.7%"}, {"smiles": "Cc1cc(C)cc(NC(=O)c2cnn(-c3ccc(C)c(C)c3)c2C2CCNCC2)c1", "activation": "inactive: -8.54%"}, {"smiles": "CCOc1ccc(CCNC(=O)c2cn(-c3cccc(OC)c3)c(=O)c3ccccc23)cc1", "activation": "inactive: -24.1%"}, {"smiles": "O=C(CCC(=O)N1CCSc2ccccc21)NCc1ccccc1Cl", "activation": "inactive: -32.1%"}, {"smiles": "CCC(C)NC(=O)c1ccc2c(c1)N(Cc1ccccc1F)C(=O)c1ccccc1S2=O", "note": "(centres undefined)", "activation": "inactive: -23.5%"}, {"smiles": "CCCCn1c(=N)c(C(=O)NC2CCCCC2)cc2c(=O)n3cccc(C)c3nc21", "activation": "inactive: 4.3%"}, {"smiles": "Cn1c(=O)oc2cc(S(=O)(=O)NCCC(=O)NCc3ccc(F)cc3)ccc21", "activation": "inactive: 3.34%"}, {"smiles": "Cc1cccc(Nc2cc(Cl)nc(SCC(=O)O)n2)c1C", "activation": "inactive: 16.5%"}, {"smiles": "COc1ccc(NC(=O)CN2C(=O)C3(SCC(=O)N3c3ccccc3)c3ccccc32)cc1Cl", "note": "(centres undefined)", "activation": "inactive: -4.9%"}, {"smiles": "Cc1c(C(=O)N(Cc2cccc(F)c2)C2CCS(=O)(=O)C2)oc2cc(Br)ccc12", "note": "(centres undefined)", "activation": "inactive: -29.4%"}, {"smiles": "O=c1cc(-c2ccc(F)cc2)nc(SCc2nc(-c3cccc(C(F)(F)F)c3)no2)[nH]1", "activation": "inactive: -3.38%"}, {"smiles": "COc1ccc(CNC(=O)c2cccc(N3CCCS3(=O)=O)c2)cc1OC", "activation": "inactive: 46.3%"}, {"smiles": "Cc1ccc(C(C)C)cc2c(C)ccc1-2", "activation": "inactive: -4.14%"}, {"smiles": "O=C(Cn1ncn2nc(-c3cccs3)cc2c1=O)NCc1ccccc1Cl", "activation": "inactive: 1.53%"}, {"smiles": "CC(C)c1ccc(NC(=O)c2ccc(Cn3nc(N4CCN(c5ccccc5)CC4)ccc3=O)o2)cc1", "activation": "inactive: 10.1%"}, {"smiles": "CCn1c(=NC(=O)c2ccc(S(=O)(=O)N3CCCC3)cc2)sc2cc(Br)ccc21", "activation": "inactive: 7.03%"}, {"smiles": "CCOC(=O)c1c(C)c(-c2ccccc2)n(CC(=O)NC2CCCCCC2)c1C", "activation": "inactive: 5.91%"}, {"smiles": "CC(C)=CCC/C(C)=C/CC/C(C)=C/CCC(=O)OC/C=C(\\C)CCC=C(C)C", "activation": "inactive: 10.6%"}, {"smiles": "CCc1ccc(N2C(=O)CSC23C(=O)N(Cc2cccc(OC)c2)c2ccccc23)cc1", "note": "(centres undefined)", "activation": "inactive: -20.4%"}, {"smiles": "C=CCc1ccc(OCc2ccc(C(=O)Nc3ccc(NC(C)=O)cc3)o2)c(OC)c1", "activation": "inactive: -5.83%"}, {"smiles": "CCc1oc2ccccc2c1C(=O)c1cc(I)c(O)c(I)c1", "activation": "inactive: -0.418%"}, {"smiles": "Cc1cccc(Cn2cnc3c(oc4ccccc43)c2=O)c1", "activation": "inactive: -9.67%"}, {"smiles": "COc1cccc(NC(=O)Cn2cc(C(=O)c3ccc(F)cc3)c(=O)c3cc(OC)ccc32)c1", "activation": "inactive: 23.3%"}, {"smiles": "CCN1CCN(C(c2ccccc2F)c2c(O)cc(C)n(CCOC)c2=O)CC1", "note": "(centres undefined)", "activation": "inactive: -7.62%"}, {"smiles": "N#Cc1ccc(NC2=NS(=O)(=O)c3ccccc32)cc1", "activation": "inactive: -1.61%"}, {"smiles": "CCC(=O)N1CCc2cc(CNS(=O)(=O)c3ccc(Br)s3)ccc21", "activation": "inactive: -2.21%"}, {"smiles": "Cc1cc(C)cc(NC(=O)N2CCC(CN3CCc4ccccc4C3)CC2)c1", "activation": "inactive: -24%"}, {"smiles": "Cc1ccc(NS(=O)(=O)c2ccc3[nH]c4c(c3c2)CCCCCC4)cc1", "activation": "active: 102%"}, {"smiles": "CCc1c(C)sc2c1CCN(C(=O)Nc1cc(C)ccc1OC)C2c1ccc(F)cc1", "note": "(centres undefined)", "activation": "inactive: -1.28%"}, {"smiles": "COc1ccc(-c2c(C)nn3c(N4CCN(c5ccccc5F)CC4)cc(C)nc23)cc1OC", "activation": "inactive: -5.74%"}, {"smiles": "CC1CCCN(S(=O)(=O)c2ccc(N3CCCCS3(=O)=O)cc2)C1", "note": "(centres undefined)", "activation": "inactive: -4.23%"}, {"smiles": "COC(=O)c1c(NC(=O)c2nc(SCc3ccccc3C)ncc2Cl)sc2c1CCCC2", "activation": "inactive: -0.496%"}, {"smiles": "Cc1ccc(C)c(N2C(=O)N(C)c3ccccc3S2(=O)=O)c1", "activation": "inactive: 2.79%"}, {"smiles": "COc1ccc(-n2c(C)nc3cc(C(=O)NC4CCCCCC4)ccc32)cc1", "activation": "inactive: -4.22%"}, {"smiles": "CCCN(CCC)CCNC(=O)c1sc2nc3n(c(=O)c2c1C)CCCCC3", "activation": "inactive: -3.39%"}, {"smiles": "Cn1c(=O)n(C)c2cc(N3CCOCC3)c(NC(=O)c3c(F)cccc3F)cc21", "activation": "inactive: -21.2%"}, {"smiles": "COc1ccc(C(=O)NCC(c2ccc(N(C)C)cc2)N2CCc3ccccc32)cc1", "note": "(centres undefined)", "activation": "inactive: -26.8%"}, {"smiles": "Cc1cc(C)c2sc(NC(=O)c3ccc(S(=O)(=O)N4CCOCC4)cc3)nc2c1", "activation": "inactive: -8.62%"}, {"smiles": "CCCN1CCN(c2cc3c(cc2F)c(=O)c(S(=O)(=O)c2ccc(Cl)cc2)cn3C)CC1", "activation": "inactive: 3.46%"}, {"smiles": "O=C(NC1CC(=O)N(c2cccc(F)c2)C1)C(c1ccccc1)c1ccccc1", "note": "(centres undefined)", "activation": "inactive: -14.3%"}, {"smiles": "COc1cc(OC)c(NC(=O)Nc2c(C)n(C)n(-c3ccccc3)c2=O)cc1Cl", "activation": "inactive: -7.43%"}, {"smiles": "CCc1cc2c(-c3ccccc3)cc(=O)oc2c2c1OCN(Cc1ccc(F)cc1)C2", "activation": "inactive: -23.2%"}, {"smiles": "CCOc1ccc(CNC(=O)C2Cc3ccccc3N2C(=O)CC)cc1", "note": "(centres undefined)", "activation": "inactive: 6.58%"}, {"smiles": "COC(=O)c1ccccc1NC(=O)c1ccc2c(=O)n3c(nc2c1)CCCCC3", "activation": "inactive: -28.4%"}, {"smiles": "CCC1C(=O)OCC1Cc1cncn1C", "note": "(centres undefined)", "activation": "inactive: -7.27% and inactive: -2.44% and inactive: -11.3%"}, {"smiles": "CCC(Oc1ccccc1)C(=O)Nc1ccc(OCc2cc(=O)n3ccccc3n2)cc1", "note": "(centres undefined)", "activation": "inactive: -14.2%"}, {"smiles": "NC(=O)c1ncn([C@@H]2O[C@H](CO)[C@@H](O)[C@H]2O)c1O", "activation": "inactive: -30.9% and inactive: 0.794%"}, {"smiles": "O=C(CN1C=NS(=O)(=O)c2ccc(C(F)(F)F)cc21)Nc1cccc(C(F)(F)F)c1", "activation": "active: 98.7%"}, {"smiles": "CCOC(=O)c1cc(NC(=O)c2ccc(Cl)cc2)c(=O)n2c1oc1ccccc12", "activation": "inactive: 16.4%"}, {"smiles": "O=C(Nc1ccc(Br)cc1)c1cccc(C(=O)Nc2ccc(Br)cc2)c1", "activation": "active: 71.1%"}, {"smiles": "O=S(=O)(c1ccc(Cl)cc1)c1nc(-c2ccccc2)oc1N1CCN(c2ccccc2)CC1", "activation": "inactive: -2.74%"}, {"smiles": "CCn1c(/C(C#N)=C/c2ccccc2Cl)nc2ccccc21", "activation": "inactive: 9.92%"}, {"smiles": "CCc1cccc(NC(=O)CSc2nc3ccsc3c(=O)n2CC)c1", "activation": "inactive: 28.5%"}, {"smiles": "CCc1nc(SCc2cc(=O)c3cc(C)ccc3[nH]2)n[nH]1", "activation": "inactive: -0.203%"}, {"smiles": "CCOc1ccc(C2CC(=O)c3c([nH]c(C(=O)OC4CCC(C)CC4)c3C)C2)cc1", "note": "(centres undefined)", "activation": "inactive: -5.8%"}, {"smiles": "COc1ccccc1N1CCN(C(=O)CN2C(=O)COc3ccc(S(=O)(=O)N4CCCC4)cc32)CC1", "activation": "inactive: -9.66%"}, {"smiles": "Cc1ccc(CN(Cc2cccn2-c2nnc(N3CCCC3=O)s2)C(=O)Nc2ccccc2C(F)(F)F)cc1", "activation": "inactive: -25.4%"}, {"smiles": "Cc1ccc(CNC(=O)Cn2c(=O)n(Cc3ccccc3)c(=O)c3sc4ccccc4c32)cc1", "activation": "inactive: -2.31%"}, {"smiles": "CCOC(=O)c1c(C)oc2nc(C)nc(NCCCN3CCN(c4ccc(F)cc4)CC3)c12", "activation": "inactive: -1.22%"}, {"smiles": "Cc1ccc(C(C)C)c(OCCCn2c(=O)oc3ccccc32)c1", "activation": "inactive: -3.73%"}]}]}
